{"source": "the supplement of paper PMC9446081", "note": "Hit rate of the full screen: of about 39,000 compounds, about 220 (0.56%) showed activity. The list shows a part of the results.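 Further: static incubation at 37 °C against the wild-type strain, values averaged over two biological replicates.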", "data": [{"tested_on": "Escherichia coli K-12 BW25113", "experiment": "relative growth (OD600 normalised to plate interquartile mean) (fraction); higher = less growth inhibition, active = 0.2 or less", "details": "50 µM; LB; incubation time: overnight (16-24 h)", "values": [{"compound": "C[C@@H]1CN([C@H](C)CO)C(=O)c2cc(NS(=O)(=O)c3cccs3)ccc2O[C@H]1CN(C)Cc1ccncc1", "relative growth": "inactive: 0.998"}, {"compound": "Cc1ccc(S(=O)(=O)Nc2ccc3c(c2)CC(=O)N([C@H](C)CO)C[C@H](C)[C@@H](CN(C)S(=O)(=O)c2ccc(F)cc2)O3)cc1", "relative growth": "inactive: 1.01"}, {"compound": "C[C@@H]1CCCCO[C@@H](CN(C)S(C)(=O)=O)[C@H](C)CN([C@H](C)CO)C(=O)c2cc(NC(=O)Nc3ccc(C(F)(F)F)cc3)ccc2O1", "relative growth": "inactive: 0.985"}, {"compound": "C[C@H]1CN([C@@H](C)CO)C(=O)Cc2cc(NS(=O)(=O)c3ccc(Cl)cc3)ccc2O[C@H]1CN(C)Cc1ccc(C(=O)Nc2ccccc2N)cc1", "relative growth": "inactive: 0.974"}, {"compound": "C[C@H](CO)N1C[C@H](C)[C@H](CN(C)C(=O)Nc2cccc3ccccc23)Oc2ncc(/C=C/c3ccccc3)cc2C1=O", "relative growth": "inactive: 1.01"}, {"compound": "COc1ccc(OC)c(CCNC(=O)CN)c1", "relative growth": "inactive: 1.04"}, {"compound": "C[C@@H]1CN([C@@H](C)CO)C(=O)Cc2cc(NS(C)(=O)=O)ccc2O[C@H]1CN(C)S(C)(=O)=O", "relative growth": "inactive: 0.973"}, {"compound": "C[C@H](CO)N1C[C@H](C)[C@@H](CN(C)Cc2ccc(C(F)(F)F)cc2)OCCCC[C@H](C)Oc2ccc(NC(=O)C3CCCCC3)cc2C1=O", "relative growth": "inactive: 0.944"}, {"compound": "COc1ccc(NC(=O)Nc2ccc3c(c2)C(=O)N([C@H](C)CO)C[C@@H](C)[C@@H](CN(C)C(=O)Nc2ccc(C(F)(F)F)cc2)O3)cc1", "relative growth": "inactive: 0.948"}, {"compound": "CO[C@H]1C[C@@H](C[C@@H](C)[C@H]2CC(=O)[C@@H](C)/C=C(\\C)[C@@H](O)[C@@H](OC)C(=O)[C@@H](C)C[C@@H](C)/C=C/C=C/C=C(\\C)[C@H](OC)C[C@H]3CC[C@@H](C)[C@@](O)(O3)C(=O)C(=O)N3CCCC[C@@H]3C(=O)O2)CC[C@@H]1O", "relative growth": "inactive: 0.97"}, {"compound": "C[C@H](CO)N1C[C@H](C)[C@@H](CN(C)C(=O)Cc2cccnc2)Oc2cc(C#CC3(O)CCCC3)ccc2S1(=O)=O", "relative growth": "inactive: 1"}, {"compound": "CCCOc1ccccc1-c1nc2[nH]nnc2c(=O)[nH]1", "relative growth": "inactive: 1.08"}, {"compound": "C[C@H](CO)N1C[C@H](C)[C@H](CN(C)C(=O)c2ccncc2)Oc2cc(-c3cccc(C#N)c3)ccc2S1(=O)=O", "relative growth": "inactive: 1"}, {"compound": "C=CC[C@@H](CC(=O)N(CCO)Cc1ccccc1)C(=O)N[C@H](COC(=O)[C@@H](CC=C)CC(=O)OC(C)(C)C)Cc1c[nH]c2ccccc12", "relative growth": "inactive: 1.08"}, {"compound": "C[C@@H]1CN([C@@H](C)CO)C(=O)c2cc(NC(=O)Nc3ccccc3)ccc2O[C@@H](C)CCCCO[C@H]1CN(C)C(=O)Nc1ccccc1", "relative growth": "inactive: 1.06"}, {"compound": "C[C@@H]1CCCCO[C@@H](CN(C)C(=O)Cc2ccccc2)[C@H](C)CN([C@@H](C)CO)C(=O)c2cc(NC(=O)Nc3ccc4c(c3)OCO4)ccc2O1", "relative growth": "inactive: 1.01"}, {"compound": "C[C@H]1CN([C@@H](C)CO)C(=O)CCCn2cc(nn2)CO[C@H]1CN(C)C(=O)Nc1ccc(C(C)(C)C)cc1", "relative growth": "inactive: 1"}, {"compound": "C[C@H]1CN([C@@H](C)CO)C(=O)Cc2cc(NC(=O)C3CC3)ccc2O[C@H]1CN(C)Cc1ccc(Oc2ccccc2)cc1", "relative growth": "inactive: 0.973"}, {"compound": "O=C(O)c1cccc(-c2ccco2)c1", "relative growth": "inactive: 1.01"}, {"compound": "C[C@H](CO)N1C[C@H](C)[C@@H](CN(C)C(=O)Nc2cccc(C(F)(F)F)c2)OCc2cnnn2CCCC1=O", "relative growth": "inactive: 0.885"}, {"compound": "C[C@@H]1CCCCO[C@@H](CN(C)C(=O)Nc2ccc(C(F)(F)F)cc2)[C@H](C)CN([C@@H](C)CO)C(=O)c2cc(NC(=O)NC3CCCCC3)ccc2O1", "relative growth": "inactive: 1.02"}, {"compound": "C[C@H](CO)N1C[C@H](C)[C@H](CN(C)C(=O)Nc2ccc(F)cc2)Oc2c(NC(=O)Nc3cccc4ccccc34)cccc2C1=O", "relative growth": "inactive: 1.01"}, {"compound": "Cl.N=C(N)NC(=N)NCCc1ccccc1", "relative growth": "inactive: 1.03"}, {"compound": "COc1ccc(NC(=O)N(C)C[C@H]2Oc3c(NC(=O)C4CCOCC4)cccc3C(=O)N([C@@H](C)CO)C[C@@H]2C)cc1", "relative growth": "inactive: 1"}, {"compound": "C[C@@H]1CCCCO[C@@H](CN(C)C(=O)C2CCCCC2)[C@@H](C)CN([C@H](C)CO)C(=O)c2cc(NS(=O)(=O)c3cccs3)ccc2O1", "relative growth": "inactive: 0.977"}, {"compound": "Cc1ccccc1S(=O)(=O)N(C)C[C@@H]1Oc2ccc(NC(=O)Nc3ccc(Cl)c(Cl)c3)cc2CC(=O)N([C@@H](C)CO)C[C@@H]1C", "relative growth": "inactive: 0.977"}, {"compound": "C[C@H]1CCCCO[C@@H](CN(C)C(=O)CCCN(C)C)[C@@H](C)CN([C@@H](C)CO)C(=O)c2cc(NS(C)(=O)=O)ccc2O1", "relative growth": "inactive: 0.991"}, {"compound": "C[C@H](CO)N1C[C@H](C)[C@@H](CN(C)Cc2ccc(C(=O)O)cc2)Oc2ccc(NC(=O)CCN3CCOCC3)cc2CC1=O", "relative growth": "inactive: 0.987"}, {"compound": "C[C@@H]1CN([C@H](C)CO)S(=O)(=O)c2ccc(C#Cc3ccc(F)cc3)cc2O[C@@H]1CN(C)S(=O)(=O)c1ccc(F)cc1", "relative growth": "inactive: 1.04"}, {"compound": "C[C@H]1CN([C@@H](C)CO)C(=O)Cc2cc(N(C)C)ccc2O[C@H]1CN(C)S(=O)(=O)c1cn(C)cn1", "relative growth": "inactive: 1.01"}, {"compound": "C[C@@H]1CCCCO[C@H](CN(C)S(=O)(=O)c2ccc(F)cc2)[C@@H](C)CN([C@@H](C)CO)C(=O)c2cc(NC(=O)Nc3ccc(F)cc3)ccc2O1", "relative growth": "inactive: 1.03"}, {"compound": "CC(Cc1cccc(C(F)(F)F)c1)NCCOC(=O)c1ccccc1.Cl", "note": "(stereo unspecified)", "relative growth": "inactive: 0.815"}, {"compound": "CC(C)NC(=O)Nc1cccc2c1O[C@@H](CN(C)Cc1ccc3c(c1)OCO3)[C@H](C)CN([C@@H](C)CO)C2=O", "relative growth": "inactive: 1"}, {"compound": "Cc1noc(C)c1NC(=O)Nc1ccc2c(c1)C(=O)N([C@H](C)CO)C[C@@H](C)[C@H](CN(C)C(=O)NC1CCCCC1)OCCCC[C@@H](C)O2", "relative growth": "inactive: 0.963"}, {"compound": "C[C@H](CO)N1C[C@H](C)[C@@H](CN(C)C(=O)CN2CCOCC2)Oc2ncc(C#C[C@@H](C)O)cc2C1=O", "relative growth": "inactive: 1.02"}, {"compound": "Cc1noc(C)c1S(=O)(=O)Nc1ccc2c(c1)CC(=O)N([C@H](C)CO)C[C@H](C)[C@H](CN(C)S(=O)(=O)c1c(C)noc1C)O2", "relative growth": "inactive: 1.01"}]}]}
